Where “and” joins values, the source holds several entries; their conditions need not be identical. Identical values can stand only once. This list was built around the results that the source calls inconclusive (neither active nor inactive); the mix of calls is not that of the screen. For some of these results: Potencies of inconclusive entries are doubtful fits and often do not repeat. Some compounds were tested as several samples or in several runs, with calls that do not always agree. Calls of active or inactive are those of the source. Unless noted, the call rests on the fitted dose curve; in most records, active means well fitted curve in the direction sought with a large enough effect; inconclusive means small, poorly fitted or top-dose-only effect, or another doubt; inactive means no such curve, though single readings can be large; an effect the other way counts as inactive or inconclusive.
Columns and labels:
[1] = qHTS assay to identify small molecule inhibitors of chordoma cells - UCH-1 (AID 1259355); further: nearly all actives have a fitted effect of over 55% in size; further: potency means the concentration at half of the fitted maximal effect
Outline: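 Screening used approved and investigational drugs in 15-point titration against 800 seeded cells per well. A fixed combination of auranofin with camptothecin, doxorubicin, rubitecan and topotecan followed compound addition, and growth was scored by CellTiter-Glo after 48hr.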

[2] = qHTS assay to identify small molecule inhibitors of chordoma cells - UCH-2 (AID 1259356); further: potency means the concentration at half of the fitted maximal effect
[3] = P-glycoprotein substrates identified in KB-8-5-11 adenocarcinoma cell line, qHTS therapeutic library screen (AID 1346987); further: nearly all actives have a fitted effect of over 65% in size; further: potency means the concentration at half of the fitted maximal effect
Outline: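 Luminescence from CellTiter-Glo, read 5 min after addition, quantified survival of KB-8-5-11 (P-gp-overexpressing) cells exposed to compounds for 72 h. AC50 was derived from concentration-response curves.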

[4] = qHTS Screen of the MIPE 4.0 Collection Against Ewings Sarcoma (TC32) (AID 1259256); conditions: TC32 Ewing sarcoma viability, CellTiter-Glo, 48 h; viability (percent of control): at 45.8 µM (top of the series); further: nearly all actives have a fitted effect of over 45% in size; further: potency means the concentration at half of the fitted maximal effect;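 on viability (percent of control): 100% = DMSO-treated cells and 0% = medium-only wells without cells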
Outline: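 Log-phase cells in RPMI with 5% FBS attached for 4 h, then received compounds as a titration for 48 h at 37C, 5% CO2. Viability was read by CellTiter-Glo luminescence and normalized to DMSO and no-cell wells.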

[5] = Identifying Small Molecule Inhibitors of Pancreatic Cancer Stem Cells (SN12C, Spheroid) (AID 1259360); conditions: Potency: SN12C spheroid viability; further: potency means the concentration at half of the fitted maximal effect
Outline: (§1)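 Spheroids grown 14 days in stem cell media on hydrogel-coated nonadherent plates; 2D lines seeded directly. Compounds added after 4 h attachment, 48 h at 37C, 5% CO2; CellTiter-Glo luminescence normalized to DMSO (no inhibition) and no-cell wells (full inhibition).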

[6] = Identifying Small Molecule Inhibitors of Pancreatic Cancer Stem Cells (A278, Adherent) (AID 1259361); conditions: viability (% of control): at 46.1 µM (top of the series); further: nearly all actives have a fitted effect of over 35% in size
Outline: as §1

[7] = Identifying Small Molecule Inhibitors of Pancreatic Cancer Stem Cells (Panc1, Adherent) (AID 1259362); conditions: Potency: viability; viability, % of control: at 46.1 µM (top of the series); further: potency means the concentration at half of the fitted maximal effect
Outline: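 Endpoint: ATP-based luminescence, 48 h drug exposure. Bortezomib at 9.2 uM final as full-kill control; DMSO vehicle as negative control; activity normalized between vehicle and cell-free wells.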

[8] = NS1 protein of Zika virus - qHTS assay to identify small molecule inhibitors in human HEK 293 cells (AID 1347053); further: nearly all actives have a fitted effect of over 55% in size; further: potency means the concentration at half of the fitted maximal effect
Outline: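 Read-out is a two-antibody TR-FRET for ZIKV NS1, normalized between uninfected cells and infected cells. Compound added 1 h before MR766 infection at MOI 0.5; human HEK 293 cells incubated 24 h, 37 C.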

[9] = qHTS assay for cell viability of HEK293 cells (AID 743288); conditions: ATP luminescence (CellTiter-Glo), 18 h; max response: stronger effect = lower value; further: nearly all actives have a fitted effect of over 50% in size; further: potency means the concentration at half of the fitted maximal effect; on max response: on the % scale 0 is the no-effect control and ±100 the full control effect
Outline: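 ATP luminescence (CellTiter-Glo) reports metabolically competent cell number after parental HEK293 cells, 2,000/well, were treated with DMSO-dissolved compounds for 18 h at 37 C; reagent incubation 30 min, room temperature.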

[10] = Natriuretic polypeptide receptor (hNpr1) antagonism - Pilot counterscreen GloSensor control cell line (AID 1347045; calls by dose curve; further: potency means the concentration at half of the fitted maximal effect)
Outline: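 Cells were first seeded and incubated overnight at 37C, then loaded with 2% GloSensor substrate for 2 h. Compounds were added for 30 min at room temperature, followed by a baseline read, 50 uM SNP and a final read after 20 min.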

[11] = biological target: Atrial natriuretic peptide receptor 1 (Homo sapiens) (UniProt P16066); test: Natriuretic polypeptide receptor (hNpr1) antagonism - Pilot screen (AID 1347049; calls by dose curve;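 further: agonist-evoked cGMP luminescence read 20 min after hNppA addition; potency means the concentration at half of the fitted maximal effect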)
Outline: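 cGMP-sensor HEK293/hNpr1 cells, 1500/well, plated overnight at 37C. 2% GloSensor reagent, 2 h RT. Compound (23 nL pin transfer) 30 min RT, baseline luminescence pre-read. 0.1 nM hNppA, 20 min RT, post-read.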

[12] = P-glycoprotein substrates identified in KB-3-1 adenocarcinoma cell line, qHTS therapeutic library screen (AID 1346986);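 further: potency means the concentration at half of the fitted maximal effect; potency is for cytotoxicity meaning loss of cell viability; nearly all actives have a fitted effect of over 60% in size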
Outline: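 In 1536-well format, 500 cells/well received pinned compound titrations and were incubated 72 h, 5% CO2. Viability was read by CellTiter-Glo; cytotoxic if AC50 < 10 uM and efficacy >50%.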
Tags describe the fitted curve by direction and shape.

Sequence of UniProt P16066 (P16066 whole entry, looked up): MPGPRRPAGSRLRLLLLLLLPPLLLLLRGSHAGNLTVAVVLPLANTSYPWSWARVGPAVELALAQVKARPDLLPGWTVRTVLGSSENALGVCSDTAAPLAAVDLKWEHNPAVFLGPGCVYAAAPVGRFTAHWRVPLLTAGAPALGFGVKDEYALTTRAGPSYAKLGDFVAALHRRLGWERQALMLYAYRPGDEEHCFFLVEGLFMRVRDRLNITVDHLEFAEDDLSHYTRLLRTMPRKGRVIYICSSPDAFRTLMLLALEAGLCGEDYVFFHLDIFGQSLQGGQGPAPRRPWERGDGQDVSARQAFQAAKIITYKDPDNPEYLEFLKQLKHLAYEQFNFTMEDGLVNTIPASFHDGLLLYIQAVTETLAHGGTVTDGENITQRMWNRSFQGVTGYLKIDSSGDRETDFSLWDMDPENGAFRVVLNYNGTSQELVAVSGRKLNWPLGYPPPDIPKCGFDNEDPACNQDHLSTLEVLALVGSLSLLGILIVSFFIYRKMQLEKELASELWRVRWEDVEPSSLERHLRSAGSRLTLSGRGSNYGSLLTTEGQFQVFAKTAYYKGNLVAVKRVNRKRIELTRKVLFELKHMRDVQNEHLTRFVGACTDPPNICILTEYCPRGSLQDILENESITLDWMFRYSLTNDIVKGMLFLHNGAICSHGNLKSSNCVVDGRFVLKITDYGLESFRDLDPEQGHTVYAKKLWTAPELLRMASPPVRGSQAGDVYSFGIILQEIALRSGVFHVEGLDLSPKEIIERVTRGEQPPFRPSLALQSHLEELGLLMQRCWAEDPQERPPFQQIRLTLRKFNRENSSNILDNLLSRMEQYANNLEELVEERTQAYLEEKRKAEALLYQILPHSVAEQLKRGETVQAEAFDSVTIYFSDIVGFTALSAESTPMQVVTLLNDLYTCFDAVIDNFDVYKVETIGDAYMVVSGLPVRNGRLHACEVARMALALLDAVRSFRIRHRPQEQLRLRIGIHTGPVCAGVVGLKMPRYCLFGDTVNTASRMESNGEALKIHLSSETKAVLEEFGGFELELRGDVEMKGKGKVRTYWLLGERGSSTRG

C[C@H]1CC[C@]2(NC1)O[C@H]1C[C@H]3[C@@H]4CC[C@H]5C[C@@H](O[C@@H]6O[C@H](CO)[C@H](O[C@@H]7O[C@H](CO)[C@@H](O)[C@H](O[C@@H]8OC[C@@H](O)[C@H](O)[C@H]8O)[C@H]7O[C@@H]7O[C@H](CO)[C@@H](O)[C@H](O)[C@H]7O)[C@H](O)[C@H]6O)CC[C@]5(C)[C@H]4CC[C@]3(C)[C@H]1[C@@H]2C
Potency [1]: active: 12.6 µM | Potency [2]: active: 2.06 µM | Potency [3]: active: 20.6 µM

CCCCCCCCC(=O)NCc1ccc(O)c(OC)c1
Potency [1]: inconclusive: 12.6 µM [rising, partial curve, poor fit]

O=c1n(Cl)c(=O)n(Cl)c(=O)n1Cl
Potency [1]: inactive

CN(C)C(=O)Oc1cc(OC(=O)N(C)C)cc(C(O)CNC(C)(C)C)c1 (stereo not given)
Potency [1]: inconclusive: 1.41 µM [cytotoxic, full curve, poor fit]

Cc1sc2c(c1C)C(c1ccc(Cl)cc1)=N[C@@H](CC(=O)OC(C)(C)C)c1nnc(C)n1-2
Potency [4]: active: 1.32 µM | Potency [5]: inconclusive: 18.7 µM [cytotoxic, partial curve, poor fit] | IC50 (viability decrease) [6]: inconclusive: 0.662 µM [cytotoxic, full curve] | Potency [7]: active: 4.18 µM

COP(=S)(OC)Oc1ccc(SC)c(C)c1
Potency [1]: inactive

[2H]C([2H])([2H])[C@H](N)Cc1ccccc1
Potency [1]: inactive

N#CC(C#N)=Cc1cc(O)c(O)c(O)c1
Potency [1]: inactive | Potency [2]: inconclusive: 29.1 µM [cytotoxic, single point] | Potency [3]: inactive

CN(C)[C@@H]1C(=O)C(C(N)=O)=C(O)[C@@]2(O)C(=O)C3=C(O)c4c(O)cccc4[C@@](C)(O)[C@H]3[C@H](O)[C@@H]12
Potency [4]: inactive | Potency [8]: inactive

CC(C)=CC1C(C(=O)OCN2C(=O)C3=C(CCCC3)C2=O)C1(C)C (stereo not given)
Potency [1]: inactive

Nc1ccncc1
Potency [1]: inactive

C[C@@H]1O[C@@H](O[C@@H]2C=C3CC[C@@H]4[C@@H](CC[C@]5(C)[C@H](c6ccc(=O)oc6)CC[C@@]45O)[C@@]3(C)CC2)[C@H](O)[C@H](O)[C@H]1O
Potency [4]: active: 0.0235 µM | Potency [8]: active: 0.0118 µM

ClC1=C(Cl)C2(Cl)C(CBr)CC1(Cl)C2(Cl)Cl (stereo not given)
Potency [1]: inactive

C[C@H]1CCCC=CC2C[C@H](O)C[C@@H]2[C@H](O)C=CC(=O)O1 (stereo not given in full)
Potency [4]: inactive | Potency [3]: active: 0.001 µM

C1CCC(NC2CCCCC2)CC1
Potency [1]: inconclusive: 14.1 µM [rising, single point]

CC(=O)O[C@H]1C[C@H](O[C@H]2[C@@H](O)C[C@H](O[C@H]3[C@@H](O)C[C@H](O[C@H]4CC[C@@]5(C)[C@H](CC[C@@H]6[C@@H]5C[C@@H](O)[C@]5(C)[C@@H](C7=CC(=O)OC7)CC[C@]65O)C4)O[C@@H]3C)O[C@@H]2C)O[C@H](C)[C@H]1O[C@@H]1O[C@H](CO)[C@@H](O)[C@H](O)[C@H]1O
Potency [1]: active: 0.251 µM | Potency [2]: active: 0.146 µM

C[C@@H]1CC[C@@]2(OC1)O[C@H]1C[C@H]3[C@@H]4CC=C5C[C@@H](O[C@@H]6O[C@H](CO)[C@@H](O[C@@H]7O[C@@H](C)[C@H](O)[C@@H](O)[C@@H]7O)[C@H](O)[C@@H]6O[C@@H]6O[C@@H](C)[C@H](O)[C@@H](O)[C@@H]6O)CC[C@]5(C)[C@@H]4CC[C@]3(C)[C@@H]1[C@H]2C
Potency [4]: active: 3.72 µM | Potency [3]: active: 18.7 µM

O=[N+]([O-])/N=C1\NCCN1Cc1ccc(Cl)nc1
Potency [1]: inconclusive: 12.6 µM [rising, single point]

COc1c2c(cc3c1OCO3)CCN(C)C2
Potency [1]: inconclusive: 0.0282 µM [cytotoxic, full curve, poor fit]

C#CC1(O)CCC2C3CCC4=CC(=O)CCC4(C)C3CCC21C (stereo not given)
Potency [4]: inactive | Potency [3]: inactive

NCC(CC(=O)O)c1ccc(Cl)cc1 (stereo not given)
Potency [1]: inactive

[O]=[Cr](=[O])([OH])[O][Cr](=[O])(=[O])[OH]
Potency [9]: inconclusive: 39.8 µM [cytotoxic, partial curve] | Potency [1]: active: 2.24 µM and active: 4.47 µM | Potency [2]: inconclusive: 20.6 µM [cytotoxic, partial curve, poor fit] and inconclusive: 9.2 µM [cytotoxic, partial curve] | Potency [3]: active: 23.1 µM

C[C@]12C/C(=C/O)C(=O)C[C@@H]1CC[C@@H]1[C@@H]2CC[C@@]2(C)[C@H]1CC[C@]2(C)O
Potency [1]: inactive

C[C@@H]1CN(C2CCC(C#N)(c3ccc(F)cc3)CC2)CC[C@]1(C(=O)O)c1ccccc1 (stereo not given in full)
Potency [1]: inconclusive: 12.6 µM [cytotoxic, partial curve, poor fit]

CC1=C2[C@H]3OC(=O)[C@@H](C)[C@@H]3CC[C@@]2(C)C=CC1=O
Potency [1]: inactive

C[C@]12CC[C@H]3[C@@H](CCC4=CC(=O)CC[C@@]43C)[C@@H]1CC[C@H]2O
max response [9]: inactive: -7.89% | Potency [1]: inconclusive: 0.112 µM [cytotoxic, full curve, poor fit] | Potency [2]: inconclusive: 6.51 µM [cytotoxic, full curve, poor fit]

O=C(O)C(Cl)(Cl)Cl
Potency [1]: inconclusive: 1.12 µM [cytotoxic, full curve, poor fit]

CC(=O)[O][Hg][c]1ccccc1
Potency [1]: active: 7.08 µM

C[C@H]1CCC[C@H](O)CCCCCc2cc(O)cc(O)c2C(=O)O1
Potency [1]: inactive

O=c1[nH]c2ccccc2n1C1CCN(CCCC(c2ccc(F)cc2)c2ccc(F)cc2)CC1
Potency [1]: inconclusive: 22.4 µM [cytotoxic, partial curve, poor fit] | Potency [2]: inactive | Potency [10]: inconclusive: 26.1 µM [inhibitor, single point] | Potency [11]: inconclusive: 19 µM [inhibitor, single point]

C[C@@H]1O[C@@H](O[C@@H]2C=C3CC[C@@H]4[C@H](CC[C@]5(C)[C@@H](c6ccc(=O)oc6)CC[C@]45O)[C@@]3(C)CC2)[C@H](O)[C@H](O)[C@H]1O
Potency [1]: active: 0.1 µM

CC(NC(C)(C)C)C(=O)c1cccc(Cl)c1 (stereo not given)
Potency [4]: inactive | Potency [3]: inactive

COC(=O)[C@@H]1[C@H]2CC[C@@H](C[C@H]1OC(=O)c1ccccc1)N2C
Potency [1]: inconclusive: 0.0035 µM [cytotoxic, full curve, poor fit]

O=C1C2CC=CCC2C(=O)N1SC(Cl)(Cl)Cl (stereo not given)
Potency [9]: inconclusive: 15.8 µM [cytotoxic, full curve] and active: 10 µM and inconclusive: 50.1 µM [cytotoxic, single point] | Potency [1]: active: 12.6 µM | Potency [2]: inconclusive: 29.1 µM [cytotoxic, single point] | Potency [3]: inconclusive: 4.11 µM [inhibitor, partial curve, poor fit]

CCCN1CCO[C@@H]2c3cc(O)ccc3OC[C@@H]21
Potency [4]: inconclusive: 26.4 µM [inhibitor, single point] | Potency [3]: inactive

N[C@@H](Cc1ccc(N(CCCl)CCCl)cc1)C(=O)O
Potency [9]: inconclusive: 44.7 µM [cytotoxic, partial curve, poor fit] | Potency [4]: inactive | Potency [1]: inconclusive: 31.6 µM [cytotoxic, single point] | Potency [2]: inconclusive: 25.9 µM [cytotoxic, single point] | Potency [3]: inconclusive: 18.4 µM [inhibitor, single point]

c1ccc2nc(N3CCNCC3)ccc2c1
Potency [1]: inconclusive: 7.08 µM [cytotoxic, full curve, poor fit] [with auranofin plus four topoisomerase inhibitors]

O=C(O)c1ccc2[nH]cc(CCCCN3CC=C(c4ccccc4)CC3)c2c1
Potency [1]: inactive

COC[C@H]1OC(=O)c2coc3c2[C@@]1(C)C1=C(C3=O)[C@@H]2CC[C@H](O)[C@@]2(C)C[C@@H]1OC(C)=O
Potency [4]: active: 2.09 µM | Potency [12]: inconclusive: 29.1 µM [inhibitor, single point] | Potency [3]: inconclusive: 14.6 µM [inhibitor, partial curve]

CC(=O)[C@H]1CC[C@H]2[C@@H]3CC[C@H]4C[C@H](O)CC[C@]4(C)[C@H]3C(=O)C[C@]12C
Potency [1]: inactive | Potency [3]: inconclusive: 14.6 µM [inhibitor, partial curve, poor fit]

CCCCCCCCCC[N+](C)(C)CCCCCCCCCC
Potency [2]: inconclusive: 29.1 µM [cytotoxic, single point] | Potency [3]: inconclusive: 18.4 µM [inhibitor, single point]

C=CCC1(C(C)CCC)C(=O)N=C(S)NC1=O (stereo not given)
Potency [2]: inconclusive: 36.6 µM [cytotoxic, single point]

Oc1cc(Cl)ccc1Oc1ccc(Cl)cc1Cl
Potency [9]: inconclusive: 79.4 µM [cytotoxic, single point] | Potency [1]: inconclusive: 0.004 µM [cytotoxic, full curve, poor fit] | Potency [8]: inconclusive: 63.1 µM [inhibitor, single point]

C[C@]12CC[C@H](O)CC1=CC[C@@H]1[C@@H]2CC[C@]2(C)C(=O)CC[C@@H]12
Potency [1]: inconclusive: 28.2 µM [cytotoxic, single point] | Potency [3]: inconclusive: 23.1 µM [inhibitor, partial curve]

CO[C@H]1[C@@H](O)C[C@H](O[C@H]2[C@@H](O)C[C@H](O[C@H]3[C@@H](O)C[C@H](O[C@H]4CC[C@@]5(C)[C@H](CC[C@@H]6[C@@H]5C[C@@H](O)[C@]5(C)[C@@H](C7=CC(=O)OC7)CC[C@]65O)C4)O[C@@H]3C)O[C@@H]2C)O[C@@H]1C
Potency [2]: active: 0.058 µM | Potency [3]: active: 0.259 µM

CCCCCl
Potency [2]: inconclusive: 29.1 µM [cytotoxic, single point] | Potency [3]: inactive
